Test results taken from PubChem BioAssay AID1460 (National Center for Advancing Translational Sciences (NCATS), 2008).
Values joined by “and” are separate entries in the source; they are usually repeats but may differ in a detail not shown here. Identical values can stand only once. The whole screen tested about 270,000 compounds, of which about 5,800 (2.1%) were called active. This list was built around the results that the source calls inconclusive (neither active nor inactive); the mix of calls is not that of the screen. The call rests on the fitted dose curve; in most records, active means well fitted inhibition curve with a large enough effect; inconclusive means small, poorly fitted or top-dose-only effect; inactive means flat fitted curve, though single readings scatter. Potencies beside an inconclusive call are fits to weak or partial responses and may not hold up.

target: Microtubule-associated protein tau (Homo sapiens) (UniProt P10636); assay: qHTS for Inhibitors of Tau Fibril Formation, Thioflavin T Binding; settings: recombinant tau K18 P301L (four-repeat tau fragment), heparin-induced fibrillization, ThT fluorescence; series mostly up to 57.4 µM; activity, negative = inhibition: at the top concentration; further: nearly all actives have a fitted effect of over 55% in size
UniProt P10636, sequence (P10636 whole entry, looked up, the tested form may be a part): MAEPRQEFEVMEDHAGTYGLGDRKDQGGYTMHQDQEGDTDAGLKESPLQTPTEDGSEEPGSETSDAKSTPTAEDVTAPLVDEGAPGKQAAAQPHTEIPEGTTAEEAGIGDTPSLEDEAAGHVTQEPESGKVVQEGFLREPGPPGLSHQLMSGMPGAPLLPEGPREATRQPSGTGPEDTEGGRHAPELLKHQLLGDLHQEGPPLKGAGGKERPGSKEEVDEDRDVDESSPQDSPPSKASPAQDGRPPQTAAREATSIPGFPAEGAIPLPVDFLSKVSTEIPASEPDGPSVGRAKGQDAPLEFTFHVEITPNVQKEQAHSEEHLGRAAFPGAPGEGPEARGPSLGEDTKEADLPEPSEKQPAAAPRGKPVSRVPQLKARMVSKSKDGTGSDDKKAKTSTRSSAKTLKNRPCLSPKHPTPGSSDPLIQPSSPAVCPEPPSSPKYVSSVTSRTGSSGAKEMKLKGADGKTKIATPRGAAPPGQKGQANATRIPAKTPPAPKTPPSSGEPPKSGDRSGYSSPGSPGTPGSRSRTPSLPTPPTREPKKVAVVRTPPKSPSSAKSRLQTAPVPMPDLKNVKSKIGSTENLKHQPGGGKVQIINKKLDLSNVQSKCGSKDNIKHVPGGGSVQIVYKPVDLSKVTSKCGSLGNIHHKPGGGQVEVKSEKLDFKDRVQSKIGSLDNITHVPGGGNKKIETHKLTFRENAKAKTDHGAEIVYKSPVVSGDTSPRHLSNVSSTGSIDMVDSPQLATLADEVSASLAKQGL
Summary of the method: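 K18 P301L tau (15 uM + 0.24 uM Alexa 594-tagged), heparin 20 uM, NaOAc pH 7, 6 h 37 C; ThT 30 uM, 1 h RT, ex 450/em 510 nm.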
On the % scale 0 is the no-effect control and ±100 the full control effect; potency means the concentration at half of the fitted maximal effect; tags describe the fitted curve by direction and shape.

Compound	Potency	activity, negative = inhibition
CCOC(=O)c1c(NC(=O)c2cc(C)on2)sc(C)c1C	inconclusive: 39.8 µM [inhibitor, single point]	–
CC1=C(C#N)C(c2cccnc2)C2=C(CCCC2=O)N1 (centres undefined)	–	inactive: -5.4%
COc1ccc(/C=C/C(=O)Nc2sc3c(c2C(N)=O)CCC(C)C3)cc1OC (centres undefined)	inconclusive: 14.1 µM [inhibitor, partial curve]	–
CC(C)(C)CN1CCNC(=O)C1CC(=O)N1CCC(C(=O)N2CCOCC2)CC1 (centres undefined)	–	inactive: -5.05%
Cc1cc(=O)[nH]c(SCC(=O)c2c(N)n(C)c(=O)n(C)c2=O)n1	–	inactive: -15.9%
COC(=O)c1[nH]c2ccc(C)cc2c1NC(=O)CN1CCc2cc(OC)c(OC)cc2C1	inconclusive: 15.8 µM [inhibitor, partial curve, poor fit]	–
CN(c1ncnc(N)c1[N+](=O)[O-])C1CCS(=O)(=O)C1 (centres undefined)	–	inactive: -1.44%
COc1ccc(NC(=O)CSc2ccc(-c3ccccn3)nn2)cc1OC	inconclusive: 31.6 µM [inhibitor, single point]	–
CCN(CC)c1ccc(/C=N/NC(=O)OC(C)(C)C)cc1	inconclusive: 14.1 µM [inhibitor, partial curve]	–
COc1cc(SC#N)ccc1N=Cc1c(C)[nH]n(-c2ccc(C)cc2C)c1=O	active: 14.1 µM	–
Cc1ccc2c(c1)N(C(=O)N1CCC(C(=O)NC3CCCCCC3)CC1)CC(C)O2 (centres undefined)	inconclusive: 15.8 µM [inhibitor, single point]	–
CCCc1cc(C(=O)N2CCN(c3ccccc3C)CC2)cs1	inconclusive: 31.6 µM [inhibitor, single point]	–
CC(C)n1c(SCC(=O)Nc2ccc(F)cc2)nc2c(oc3ccccc32)c1=O	–	inactive: 2.64%
CCC(C)NCCOc1ccc(Br)cc1 (centres undefined)	–	inactive: -2.43%
Cc1ccccc1NCC(=O)N/N=C\c1ccc([N+](=O)[O-])s1	inconclusive: 12.6 µM [inhibitor, partial curve]	–
Cc1cc(N=Cc2c(O)n(-c3cccc(C(F)(F)F)c3)c(=O)c3ccccc23)no1	inconclusive: 3.98 µM [activator, partial curve]	–
Cc1cc(-n2[nH]c(C)c(C)c2=O)nc(-c2ccccc2O)n1	inconclusive: 39.8 µM [inhibitor, single point]	–
Nc1nonc1C(=O)N/N=C/c1ccc(-c2cccc([N+](=O)[O-])c2)o1	inconclusive: 14.1 µM [inhibitor, partial curve]	–
O=c1c(O)c(-c2ccccc2)oc2cc(O)ccc12	inconclusive: 31.6 µM [inhibitor, partial curve, poor fit]	–
Cn1ncc(C(=O)N2CCN(c3ccc(F)cc3)CC2)c1C1CCN(C(=O)OC(C)(C)C)CC1	–	inactive: -0.808%
CCCC(=O)Nc1ccc(-c2nc3cc(C)c(C)cc3o2)cc1	inconclusive: 1.12 µM [inhibitor, full curve]	–
CCCn1c(-c2cccc(Br)c2)nc2ccccc21	inconclusive: 11.2 µM [inhibitor, partial curve, poor fit]	–

Compound	Potency	activity, negative = inhibition
Cc1ccc(NC(=O)c2ccc(NCCc3ccccc3)c([N+](=O)[O-])c2)cc1F	inconclusive: 1.78 µM [inhibitor, full curve]	–
COc1cccc2sc(N(CCN(C)C)C(=O)/C=C/c3cccs3)nc12	inconclusive: 14.1 µM [inhibitor, partial curve]	–
NS(=O)(=O)c1ccc(N/N=C/c2cn(-c3ccccc3)nc2-c2cccs2)cc1	active: 15.8 µM	–
O=C(N/N=C/c1cc(Br)c(Br)o1)c1cccnc1	inconclusive: 39.8 µM [inhibitor, single point]	–
COc1nc(-c2ccc(C)cc2)ccc1-c1noc(-c2ccco2)n1	inconclusive: 10 µM [inhibitor, full curve, poor fit]	–
C[C@@H]1C=C[C@](Cc2ccccc2)(C(=O)NCCc2c[nH]c3ccccc23)N1C(=O)c1ccccc1	inconclusive: 22.4 µM [inhibitor, partial curve]	–
COc1ccc(S(=O)(=O)NNC(=O)c2ccc(-n3c(C)ccc3C)cc2)cc1	inconclusive: 39.8 µM [inhibitor, single point]	–
Nc1nc(N)c(C=Nc2ccc(Br)cc2)c(Nc2ccc(Br)cc2)n1	active: 28.2 µM	–
COc1ccc(NCc2n[nH]nc2-c2ccccc2)cc1Cl	inconclusive: 12.6 µM [inhibitor, partial curve, poor fit]	–
Cc1cccc(-c2noc(-c3ccc(N4CCN(C)CC4)c([N+](=O)[O-])c3)n2)c1	–	inactive: -0.688%
COc1ccc(-c2noc(-c3ccccc3-c3ccccc3)n2)cc1	inconclusive: 35.5 µM [inhibitor, partial curve]	–
O=[N+]([O-])c1cc(Br)c(O)c(/C=N/Nc2nc3ccccc3s2)c1	active: 4.47 µM	–
COc1ccc2nc(SCC(=O)Nc3cc(C)on3)[nH]c2c1	inconclusive: 39.8 µM [inhibitor, partial curve]	–
CC1CCN(c2nc3ccc(C(=O)N4CCN(Cc5ccc6c(c5)OCO6)CC4)cc3s2)CC1	inconclusive: 8.91 µM [inhibitor, partial curve, poor fit]	–
Cc1ccc(C(=O)n2nc(C)c(S(=O)(=O)N3CCCCCC3)c2C)cc1	inconclusive: 17.8 µM [inhibitor, partial curve, poor fit]	–
CCCCC1=CC2=C(c3ccco3)C(=O)C(C)(OC(=O)c3ccc(OC)cc3)C(=O)C2=CN1CCCCO (centres undefined)	inconclusive: 35.5 µM [inhibitor, partial curve] and inconclusive: 8.91 µM [inhibitor, single point]	–
Cc1ccc(-c2nnc(N3CCC(C)CC3)c3ccccc23)cc1C	inconclusive: 44.7 µM [inhibitor, single point]	–
Cc1cc(C(=O)Oc2cccnc2)ccc1[N+](=O)[O-]	inconclusive: 14.1 µM [inhibitor, partial curve]	–
O=C(CSc1nnc2[nH]c(=O)cc(-c3ccccc3)n12)Nc1ccc(F)cc1F	inconclusive: 1.26 µM [inhibitor, full curve, poor fit]	–
COC(=O)c1cn(NC(=O)/C=C/c2cccc(OC)c2OC)c(=O)c2ccccc12	inconclusive: 39.8 µM [activator, single point]	–
O=C(c1ccc2c3n(nc2c1)-c1ccc(Cl)cc1CO3)N1CCCCC1	inconclusive: 2.51 µM [inhibitor, partial curve]	–
Cc1ccc(NC(=S)/C(=C(\[O-])c2ccc(Cl)s2)[n+]2cccc(CO)c2)cc1C	inconclusive: 15.8 µM [inhibitor, partial curve]	–

Compound	Potency	activity, negative = inhibition
Cc1cccc(N(CC(=O)NCc2ccc3c(c2)OCO3)C(=O)CCC(=O)Nc2ccccn2)c1	inconclusive: 39.8 µM [inhibitor, single point]	–
NNc1ccc(Cl)c(C(=O)O)c1	inconclusive: 39.8 µM [inhibitor, single point]	–
Cc1cc(C)cc(NC(=O)C2CCCN2S(=O)(=O)c2cccc3nsnc23)c1 (centres undefined)	–	inactive: -2.68%
Cc1cc(C(=O)N/N=C/c2sccc2C)no1	inconclusive: 10 µM [inhibitor, partial curve]	–
Oc1c(C(Nc2cccc(C(F)(F)F)c2)c2ccncc2)ccc2cccnc12 (centres undefined)	inconclusive: 20 µM [inhibitor, partial curve]	–
COc1ccc(/C=N/NC(=O)c2cccc(NC(C)=O)c2)c(OC)c1	inconclusive: 11.2 µM [inhibitor, partial curve]	–
CCOC(=O)c1c(C)[nH]c(C(=O)Nc2ccc(NC(C)=O)cc2)c1C	inconclusive: 39.8 µM [inhibitor, single point]	–
CC(C)NC(=O)C1CCN(c2nc3ccccc3nc2C(F)(F)F)CC1	–	inactive: -8.76%
CCOC(=O)CSc1nc2cc3c(cc2cc1C#N)OCO3	inconclusive: 3.55 µM [inhibitor, full curve]	–
C[C@@H]1C=C[C@](Cc2ccccc2)(C(=O)NCCCNc2ncc(C(F)(F)F)cc2Cl)N1C(=O)c1ccccc1	inconclusive: 0.0631 µM [inhibitor, full curve, poor fit]	–
Cc1cc(=O)n2[nH]c(C)c(-c3ccccc3)c2n1	–	inactive: -8.06%
CC(C)[C@@H](OCc1ccccc1)[C@H](C)CO/N=C1/[C@H]2OC2[C@@H](O)[C@H]2[C@H]1CCn1c(=O)n(-c3ccccc3)c(=O)n12 (some centres undefined)	–	inactive: -11.2% [at 11.5 µM]
Cc1ccc(C)c(Cc2c(C)nc3c(C(=O)NCc4ccc5c(c4)OCO5)cnn3c2C)c1	inconclusive: 31.6 µM [inhibitor, partial curve]	–
Cc1ccc2nc(SCC(=O)Nc3cc([N+](=O)[O-])ccc3F)[nH]c2c1	inconclusive: 15.8 µM [inhibitor, partial curve]	–
CCCCNC(=O)CSc1nnc(C)c2c(C)n(-c3ccccc3)nc12	–	inactive: -9.3%
Cc1nnc(SCC(=O)Nc2nsc(-c3ccc(C(C)(C)C)cc3)n2)s1	inconclusive: 25.1 µM [inhibitor, partial curve, poor fit]	–
COc1ccccc1/C=N\Nc1cc(C)nc(-n2nc(C)cc2C)n1	inconclusive: 14.1 µM [inhibitor, partial curve]	–
CCN(CC)S(=O)(=O)c1cccc(C(=O)N/N=C2\CC(=O)CC(C)(C)C2)c1	inconclusive: 39.8 µM [inhibitor, partial curve]	–
O=C1CC(c2ccc(O)c(O)c2)Oc2cc(O)cc(O)c21 (centres undefined)	inconclusive: 28.2 µM [inhibitor, partial curve]	–
Cc1cc(C=O)c(C)n1-c1cccc(C(=O)O)c1	–	inactive: -10.1%
